Laboratory results taken from patent EP4527191A1, “UREASE INHIBITORS” (priority 2023, dated 2025).

molecular target: T1, Urease ous Canavalia ensiformis (Jack bean) (Canavalia ensiformis, UniProt P07374); experiment: not given; conditions: not given
T1 sequence (P07374 whole entry, looked up): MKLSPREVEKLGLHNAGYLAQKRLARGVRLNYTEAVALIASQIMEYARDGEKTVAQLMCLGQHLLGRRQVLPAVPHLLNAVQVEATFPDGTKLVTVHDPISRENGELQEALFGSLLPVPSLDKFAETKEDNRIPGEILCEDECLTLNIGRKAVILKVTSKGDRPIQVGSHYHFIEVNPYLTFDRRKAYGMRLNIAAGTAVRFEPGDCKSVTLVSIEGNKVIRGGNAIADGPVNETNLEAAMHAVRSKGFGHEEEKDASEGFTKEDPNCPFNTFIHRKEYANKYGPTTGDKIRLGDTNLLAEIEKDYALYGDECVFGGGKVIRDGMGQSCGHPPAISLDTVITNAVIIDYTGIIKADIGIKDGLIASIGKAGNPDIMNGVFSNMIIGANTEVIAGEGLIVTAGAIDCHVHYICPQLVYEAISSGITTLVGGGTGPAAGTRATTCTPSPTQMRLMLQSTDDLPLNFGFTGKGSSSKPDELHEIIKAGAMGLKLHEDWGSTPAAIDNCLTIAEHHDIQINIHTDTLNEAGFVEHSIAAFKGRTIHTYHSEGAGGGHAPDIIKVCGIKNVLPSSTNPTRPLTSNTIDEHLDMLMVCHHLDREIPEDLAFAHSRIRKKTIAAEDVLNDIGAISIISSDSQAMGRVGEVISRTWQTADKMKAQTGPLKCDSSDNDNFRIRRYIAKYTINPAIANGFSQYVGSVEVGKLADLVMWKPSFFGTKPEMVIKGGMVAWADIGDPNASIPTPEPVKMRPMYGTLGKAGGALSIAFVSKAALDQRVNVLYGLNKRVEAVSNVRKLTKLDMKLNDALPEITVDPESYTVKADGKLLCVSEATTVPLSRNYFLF

Row | Structure (SMILES) | inhibition rate (normed, based on NBPT)
1 | CCc1ccc(CC(C)(C)C=O)cc1 [FLORAZON, 3-(4-Ethylphenyl)-2,2-dimethylpropanal] | 0,371
2 | Cc1ccc2c(c1)OC(=O)C2C (stereo not shown) [FURAMINTON/TONKALACTONE™, Dimethyl benzofuranone] | 0,889
3 | CCc1ccc(CC(C)(C)C=O)cc1 [FLORALOZONE, 3-(4-Ethylphenyl)-2,2-dimethylpropanal] | 0,954

same assay, conditions: 1 hour, 24°C, urea 1g/L, urease 2 U/mL, PBS 1x

Row | Structure (SMILES) | Δ Absorbance at 1h (560nm)
4 | CCCCNP(N)(N)=S [NBPT, N-(n-Butyl)thiophosphoric triamide, reference compound] | 0,00

same assay, conditions: FRM 0,1% final, urea 1g/L, urease 2 U/mL, PBS 1x, 24°C, 1 hour, 560 nm; printed as fraction normed to NBPT

Row | Structure (SMILES) | inhibition rate (normed, based on NBPT)
5 | CC(C=O)Cc1ccc(C(C)C)cc1 (stereo not shown) [CYCLAMEN ALDEHYDE, Cyclamen aldehyde] | 0,543
6 | CCC(=O)/C=C/C1C(C)=CCCC1(C)C (stereo not drawn) [METHYL IONONE ALPHA / IFF, Alpha-methyl ionone] | 0,767
7 | C=CC(C)=CCC=C(C)C [OCIMENE, Ocimene] | 0,836
8 | CC(=O)CCC=C(C)C [METHYL HEPTENONE-6,5,2, Methyl heptanone] | 0,549
9 | CC1=C(O)C(=O)CC1 [METHYL CYCLOPENTENOLONE-3,2,2 NAT., Methyl cyclopentenolone] | 0,808
10 | CC1=CC(C)C(C=O)CC1 (stereo not shown) [VERTOCITRAL, (Z,E)-2,4-dimethyl cyclohex-3-ene-1-carbaldehyde] | 0,559
11 | CC1=CC(C)C(C=O)CC1 (stereo not shown) [LIGUSTRAL, (Z,E)-2,4-dimethyl cyclohex-3-ene-1-carbaldehyde] | 0,482
12 | CC1=CCC(C(C)C)=CC1 [TERPINENE GAMMA, Terpinene gamma] | 0,523
13 | CC=CC(=O)C1C(C)=CCCC1(C)C (stereo not drawn) [DAMASCONE ALPHA, Alpha Damascone] | 0,676
14 | CC(C=O)Cc1ccc2c(c1)OCO2 (stereo not shown) [HELIONAL, Helional] | 0,975
15 | C[C@H]1CC[C@@]2(O)C(C)(C)[C@@H]3CC[C@@]2(C)[C@H]1C3 [PATCHOULI ALCOHOL, (1R,3R,6S)-2,2,6,8-Tetramethyl-tricyclo[5.3.1.03,8]undec-3-ol] | 0,972
16 | C=C(C)[C@@H]1CC=C(C)[C@H](OC(C)=O)C1 (relative stereo) [CARVYL ACETATE CIS-, Cis-Carvyl acetate] | 0,828
17 | CC=CC(=O)C1=C(C)C=CCC1(C)C [D[…], Beta-damascenone] | 0,887
18 | CC(C)=CCCC(C)=CC=O [CITRAL 95, Citral] | 0,322
19 | CC(C)=CCCC(C)=CC=O [CITRAL FF, Citral] | 0,701
20 | CCCCCCCCCC(C)C=O (stereo not shown) [ALDEHYDE C12 MNA, Aldehyde C12] | 0,377
21 | CC(=O)C=CC1=C(C)CCCC1(C)C [IONONE BETA, Beta Ionone] | 0,495
22 | CCCCCC(CO)Cc1ccccc1 (stereo not shown) [JASMOL, Jasmol] | 0,817

same assay, conditions: […], given as fraction; 1 hour, 24°C

Row | Structure (SMILES) | Inhibition
23 | CCCCNP(N)(N)=S [NBPT, N-(n-Butyl)thiophosphoric triamide, reference compound] | 1,00

molecular target: T1, Urease ous Canavalia ensiformis (Jack bean); experiment: biochemical; conditions: 1 h, read-out: inhibition rate (normed, based on NBPT)

Row | Structure (SMILES) | inhibition at 0.1 % [%]
24 | CC(C)=CCCC(C)CCO (stereo not shown) [CITRONELLOL, Citronellol] | 98.2
25 | CC1=CCC2[C@H](C1)C2(C)C (stereo partly drawn) [CAREN DELTA-3, (1S)-3,7,7-Trimethyl-bicyclo[4.1.0]hept-3-en] | 72.8
26 | CC/C=C\CCO [HEXENOL CIS-3, Cis-3-Hexenol] | 64
27 | C=C1CCC2CC1C2(C)C (stereo not drawn) [PINEN BETA, beta-Pinen] | 103
28 | CC(C)=CCCC(C)C=O (racemic) [MELONAL, (±)-2,6-Dimethyl-5-heptenal] | 42.9
29 | OCC=Cc1ccccc1 [CINNAMIC ALCOHOL, Cinnamyl alcohol] | 43
30 | C=C(C)C1CC=C(C)CC1 (stereo not shown) [LIMONENE D nat, p-Mentha-1,8-dien] | 86.6

same assay, conditions: 1 h, read-out: inhibition rate (normed, based on NBPT), FRM 0,1% final, urea 1g/L, urease 2 U/mL, PBS 1x, 24°C, 1 hour, 560 nm; printed as fraction normed to NBPT

Row | Structure (SMILES) | inhibition at 0.1 % [%]
31 | CCCC1CC=C(C)C(=O)C1 (stereo not shown) [2-METHYL-5-PROPYL-2-CYCLOHEXENONE, 2-Methyl-5-propyl-2-Cyclohexenone] | 84.7
32 | CC(C)CC1CC(C)(O)CCO1 (stereo not shown) [FLOROSA, 4-Methyl-2-(2-methylpropyl)oxan-4-ol] | 44.2
33 | CC/C=C\CCOC(=O)C(C)C [HEXENYL I[…]-3, Cis-3-hexenyl isobutyrate] | 88.3
34 | CC/C=C\CCOC(=O)CCCCC [HEXENYL CAPROATE CIS-3, Cis-3-hexenyl hexanoate] | 44.9
35 | CC(CC=O)c1ccc(C(C)(C)C)cc1 (stereo not shown) [LILIAL, 3-(4-Tert-butylphenyl)butanal] | 34.7
36 | C=C1/C=C/[C@H](C(C)C)CC/C(C)=C/CC1 [[…], (1E,6E,8S)-1-methyl-5-methylidene-8-propan-2-ylcyclodeca-1,6-diene] | 98.1
37 | CC/C=C\CCOC(=O)c1ccccc1O [HEXENYL […]-3, Cis-3-hexenyl salicylate] | 88.5
38 | CCC/C=C/C=O [HEXENAL TRANS-2, Trans-2-Hexenal] | 38.1
39 | CC(C)=CCC/C(C)=C/CO [GERANIOL 60 B, Geraniol] | 83.4
40 | CC/C=C\CCOC(C)OCC (stereo not drawn) [cis-1-(1-Ethoxyethoxy)-3-hexene] | 81.2
41 | CC/C=C\CCOC(=O)CC [HEXENYL […]-3, Cis-3-hexenyl propionate] | 85.9
42 | C=CC(C)(O)CCC=C(C)C (stereo not shown) [LINALOOL, Linalool] | 96.9
43 | CC1=CC2C(=C(C)CCCC2(C)C)CC1 (stereo not shown) [[…], 2,5,9,9-tetramethyl-3,4,6,7,8,9a-hexahydrobenzo[7]annulene] | 72.5
44 | CC12CCC(CC1)C(C)(C)O2 [EUCALYPTOL, Eucalyptol] | 104
45 | CC1=CCC2CC1C2(C)C (stereo not drawn) [PINEN ALPHA, alpha-Pinen] | 32.2
46 | CC(C)=CCC/C(C)=C/C=O [GERANIAL, Geranial] | 99.2
47 | CCC/C=C/CO [HEXENOL TRANS-2, Trans-2-Hexenol] | 45.5
48 | CC/C=C\CCOC(C)=O [HEXENYL ACETATE CIS-3, Cis-3-hexenyl acetate] | 77.9
49 | CCC1OC(=O)C(O)=C1C (stereo not shown) [METHYL ETHYL HYDROXYFURANONE, 5-Ethyl-3-hydroxy-4methyl-2(5H)-furanon] | 61.1
50 | CC/C=C\CCOC(=O)CCC [HEXENYL BUTYRATE CIS-3, Cis-3-hexenyl butyrate] | 77.9
51 | CC1=CC(O)CC(C)C2CC(=C(C)C)CC12 (stereo not shown) [VETIVEROL, 4,8-dimethyl-2-propan-2-ylidene-3,3a,4,5,6,8a-hexahydro-1H-azulen-6-ol] | 100
52 | CC(C)=CCCC(C)=CCO [NEROL 900, 3,7-Dimethylocta-2,6-dien-1-ol] | 31.1
53 | C=CCCC(=O)C1=CCCC(C)(C)C1 [DYNASCONE, 1-(5,5-Dimethyl-1-cyclohexenyl)pent-4-en-1-one] | 92.8
54 | CC/C=C\CCOC(=O)CC(C)C [HEXENYL I[…]-3, Cis-3-Hexenyl isovalerate] | 80.4
55 | CCCCCCC(C=O)=Cc1ccccc1 [HEXYL CINNAMIC ALDEHYDE ALPHA, Alpha-hexyl cinnamaldehyde] | 62.6
